Publication PMC7819943, “Rice protein-binding microarrays: a tool to detect cis-acting elements near promoter regions in rice”
Some of the results follow.

molecular target: T1, OsWOX13 (Oryza sativa, UniProt Q5QMM3 1-267); assay: protein-binding microarray (RPBM); PBS, 2% BSA, 51.3 ng/ul salmon testes DNA, 50 uM zinc acetate, 200 nM TF, 25 C, 1 h; high values mean tight binding; details: protein: recombinant; tags: N-terminal polyhistidine and DsRed monomer fusion (pET32a); label: CyDye5-dUTP incorporated in the synthesized complementary strand; 3' TTTTT single-stranded linker to array surface; dsDNA, one strand shown
T1 sequence: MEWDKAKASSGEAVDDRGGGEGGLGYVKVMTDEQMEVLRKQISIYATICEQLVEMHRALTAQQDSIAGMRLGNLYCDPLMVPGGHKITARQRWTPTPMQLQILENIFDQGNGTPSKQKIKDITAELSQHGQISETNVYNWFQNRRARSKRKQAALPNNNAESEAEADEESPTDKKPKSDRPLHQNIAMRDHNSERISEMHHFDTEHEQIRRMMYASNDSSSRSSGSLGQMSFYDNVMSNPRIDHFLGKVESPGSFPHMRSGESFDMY
Method in brief: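 Using Ni–NTA, transcription factors fused N-terminally to polyhistidine and DsRed were purified after expression in E. coli BL21-CodonPlus. These were incubated at 200 nM with a blocked, double-stranded custom Agilent array for 1 h at 25 °C in a buffer containing 50 µM zinc acetate, and the array was washed. The binding signal is per-feature fluorescence intensity (arbitrary units) on an Axon 4000B scanner.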

Sequence | binding signal
GTGATATTTGGGATAATTGTATCCTCATTTTCAATCCTTTCGGAGTCACCTAGTGCAG | 5020 fluorescence intensity (a.u.)
CTATATCATTTACAAATTAATCAAATTTAAAGGAGTTTTACGGAGTCACCTAGTGCAG | 7180 fluorescence intensity (a.u.)
ACTACTCCACTAATTGATTTACTACTTAGTACTAAGTACTCGGAGTCACCTAGTGCAG | 35900 fluorescence intensity (a.u.)
CTGCTAATCACTCACGTATAGTTCGTACTTCATTTCTTCTCGGAGTCACCTAGTGCAG | 12000 fluorescence intensity (a.u.)
TAACTAATTATGTGTTAATTCATCTTTTCATTTACGTGTCCGGAGTCACCTAGTGCAG | 26700 fluorescence intensity (a.u.)
TGAATAATTTTGTCAAACACATACTAGCCAGACAAATAAGCGGAGTCACCTAGTGCAG | 5510 fluorescence intensity (a.u.)
ACAGCCTCGGCAGTCAATCAACCCTAGTAAATTTCATCGTCGGAGTCACCTAGTGCAG | 11800 fluorescence intensity (a.u.)
GTAAATTGTAGATGGCTGCCGACCAGTGGGGTTGGAAATGCGGAGTCACCTAGTGCAG | 3670 fluorescence intensity (a.u.)
CTGTCATTAGAGACTAATTGGATTAGTTTAATCACCTAATCGGAGTCACCTAGTGCAG | 17900 fluorescence intensity (a.u.)
TTAAACTAAGATTAACATAATTTGGACAATGATTTTAATGCGGAGTCACCTAGTGCAG | 19800 fluorescence intensity (a.u.)
AGCATATAATTGATTAACTATTAGAAAAGGATTTAGAATGCGGAGTCACCTAGTGCAG | 51000 fluorescence intensity (a.u.)
GAATTGATGAAAACATAAATTAACTCCTCGTACCCTTTTACGGAGTCACCTAGTGCAG | 6640 fluorescence intensity (a.u.)
AGTAATAATCCAATGACTGGTTTGAGGCACGCATTAGGCGCGGAGTCACCTAGTGCAG | 4790 fluorescence intensity (a.u.)
CTCATTGGATGAATTGACAGAGTCTCTTGCCCTTTACCTTCGGAGTCACCTAGTGCAG | 13500 fluorescence intensity (a.u.)
TTGTTTTAATTAGAACCACCAAATAGTACTACTTCACACGCGGAGTCACCTAGTGCAG | 13200 fluorescence intensity (a.u.)
TTCAGCAAATTAGCAAATATTGCATCTTGTGTTTCCTCTGCGGAGTCACCTAGTGCAG | 7600 fluorescence intensity (a.u.)
CAATTTCATTTCCAATCACACAGATTTGCTCTCTTCTTCTCGGAGTCACCTAGTGCAG | 10300 fluorescence intensity (a.u.)
TCCAGTGATTAATCTCTTCTCCATCTCTGCCCTGCACCCTCGGAGTCACCTAGTGCAG | 21400 fluorescence intensity (a.u.)
TGTAATTACATGTAAGTTACAGTGTAATTACATATAAGTTCGGAGTCACCTAGTGCAG | 22300 fluorescence intensity (a.u.)
AATTAATCAGCCAATCACAATCTCTCAAACTACACGGACTCGGAGTCACCTAGTGCAG | 35500 fluorescence intensity (a.u.)
GTGATTGATGTAAATGCCTTAACGGTCCAGCACCTCAGCTCGGAGTCACCTAGTGCAG | 61200 fluorescence intensity (a.u.)
GTTCTAAACAGACCTAAATTGCACCCTAGTAAGAAGTAAGCGGAGTCACCTAGTGCAG | 7170 fluorescence intensity (a.u.)
GCAATTTGATTTGGCCTGTATATTATTATGTGCAGGGTTCCGGAGTCACCTAGTGCAG | 13800 fluorescence intensity (a.u.)
